Out of some 72,000 compounds screened, about 710 (0.99%) were called active. The inconclusive results got no clear call from the source; some entries with a clear call stand among them for comparison. Calls come from the whole dose curve; as a rule, active = well fitted inhibition curve with a large enough effect; inconclusive = small, poorly fitted or top-dose-only effect; inactive = no such curve, though single readings can be large or run the other way. Potencies of inconclusive entries are left out as doubtful fits.
Assay: qHTS Assay for Inhibitors of the ERK Signaling Pathway using a Homogeneous Screening Assay; note: nearly all actives have a fitted effect of over 55% in size
Conditions: HEK293-V1b, vasopressin-stimulated pERK AlphaScreen; activity, negative = inhibition: at 57.5 µM (top of the series) unless noted
Outline: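 V1b-HEK293 cells; cpd 30 min 37C; 25 nM vasopressin 5 min; lyse 10 min; AlphaScreen beads 5 hr RT. Normalized to DMSO basal and 25 nM vasopressin; AC50 by Hill fit.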
In the case of `COc1c(-c2coc3cc4c(cc3c2=O)CC(OC(C)=O)C(C)(C)O4)ccc2c1C=CC(C)(C)O2` (stereo not given), the Potency is reported as active: 15.8 µM.
With `Cc1[nH]c2ccccc2c1SCCNC(=O)c1ccc(Br)o1` the Potency was “inactive”.
In the case of `C=CCn1c(NC(=O)c2ccccc2)c(C#N)c2nc3ccccc3nc21`, the Potency is reported as inconclusive [inhibitor, single point].
With `CC[C@@H](c1ccccc1)n1c(=O)n2n(c1=O)[C@H]1[C@H](O)[C@H]3O[C@@H]3/C(=N/OC[C@@H](O)COCc3ccco3)[C@@H]1CC2` the activity, negative = inhibition was inactive: 13% [at 11.5 µM].
For `CC(C)CCn1nnnc1C(c1ccc(N(C)C)cc1)N1CCN(C(=O)c2ccco2)CC1` (stereo not given), the Potency was inconclusive [inhibitor, single point].
With `CCCC1(C(=O)OC)C=C2C(=C(C(C)C)C(=O)C2C)CN1` (stereo not given) the Potency was “inactive”.
In the case of `O=C(Nc1cccnc1)c1ccc(COc2ccccc2Br)o1`, the Potency is reported as inconclusive [inhibitor, single point].
In the case of `CCC(=O)c1ccc(OCC(O)CN2CCN(S(=O)(=O)N3CCCCC3)CC2)cc1` (stereo not given), the Potency is reported as inconclusive [inhibitor, single point].
For `CCCn1c(SCC(=O)Nc2ccccc2-c2ccccc2)nnc1-c1ccoc1C`, the Potency was “inactive”.
For `CCC1=C2CC[C@H]3C(=O)N(CC)C(=O)[C@H]3[C@H]2[C@@]2(C)C(=O)N(CC(=O)OC)C(=O)N2C1=O`, the Potency was “inactive”.
In the case of `Cc1cc(NC(=O)C2C3C(=O)N(CCC(C)C)C(C(=O)NCc4ccccc4)C34C=CC2(C)O4)no1` (stereo not given), the Potency is reported as inconclusive [inhibitor, partial curve].
For `COc1cc(NC(=O)C2CC(=O)NC3=C2C(=O)CC(C)(C)C3)c(OC)cc1Cl` (stereo not given), the Potency was inconclusive [inhibitor, partial curve].
For `O=S(=O)(N1CCOCC1)n1c(Cc2ccccc2)nc2ccccc21`, the Potency was inconclusive [inhibitor, single point].
In the case of `COc1ccccc1CNc1ccnc(-c2c(C)noc2C)n1`, the Potency is reported as inconclusive [inhibitor, partial curve].
With `COc1ccc(-n2c(SCC(=O)Nc3ccc(C(=O)O)cc3)nnc2-c2cccs2)cc1` the Potency was inconclusive [inhibitor, full curve].
For `CC(=O)N1CCN(C(=O)CCc2nc3sc4c(c3c(=O)[nH]2)CCCC4)CC1`, the Potency was inconclusive [inhibitor, single point].
With `CCOC(=O)C1(c2csc(N)n2)COC(=O)C1` (stereo not given) the Potency was inconclusive [inhibitor, partial curve].
In the case of `COc1ccc(-c2nc(C#N)c(NCC3CCCO3)o2)cc1OC` (stereo not given), the Potency is reported as inconclusive [inhibitor, single point].
With `O=C(/C(=N/O)c1ccccc1)c1ccccc1` the activity, negative = inhibition was inconclusive: -31.2% [inhibitor].
With `O=C(Nc1ccc(-c2cn3ccsc3n2)cc1)c1ccc(F)c(S(=O)(=O)N2CCOCC2)c1` the Potency was active: 12.6 µM.
For `O=C(NCc1ccc2c(c1)OCO2)c1nn(-c2ccccc2)c(=O)c2ccccc12`, the Potency was “inactive”.
With `CCn1c(SCC(=O)Nc2ccc(N(C)C)cc2)nnc1-c1cccc(C)c1` the Potency was inconclusive [inhibitor, single point].
With `CN(C)c1cccc(O)c1` the Potency was “inactive”.
For `Cc1noc(C)c1COC(=O)c1ccc2c(c1)S(=O)(=O)c1ccccc1C2=O`, the Potency was “inactive”.
For `CN(Cc1ccccc1)c1nc2c(c(=O)n(C)c(=O)n2C)n1CCCc1ccccc1`, the Potency was active: 20 µM.
In the case of `COc1cc2nc(N3CCN(C(=O)[C@H]4COc5ccccc5O4)CC3)nc(N)c2cc1OC`, the Potency is reported as inconclusive [inhibitor, partial curve].
In the case of `CN(C)C(=O)CSc1nnc2sc3ccccc3n12`, the Potency is reported as “inactive”.
For `COc1cccc(Cn2c(=O)c(-c3cccs3)nc3cnc(N4CCNCC4)nc32)c1`, the Potency was “inactive”.
With `CCOC(=O)C1=C(CNCCc2ccc(Cl)cc2)NC(=O)NC1c1ccc2c(c1)OCO2` (stereo not given) the Potency was inconclusive [inhibitor, single point].
With `COC(=O)c1cc(CSc2nnc(-c3ccccc3)c(-c3ccccc3)n2)oc1C` the Potency was “inactive”.
In the case of `N#CCCn1c(=O)c(-c2ccc(Cl)cc2)nc2cnc(Oc3cccc(Cl)c3)nc21`, the Potency is reported as “inactive”.
For `CC(C)CC(/C(O)=C(\C#N)c1nc2ccccc2[nH]1)N1C(=O)c2ccccc2C1=O` (stereo not given), the Potency was inconclusive [inhibitor, partial curve].
With `Cc1nc2ccc(-c3ccccc3)cc2o1` the Potency was “inactive”.
With `O=C(N/N=C\c1ccc2c(c1)CCC2)c1ccccc1O` the Potency was inconclusive [inhibitor, single point].
For `Cc1cc(NC(=O)Nc2ccc(N(C)C)cc2)c2cc(F)cc(F)c2n1`, the Potency was inconclusive [inhibitor, full curve].
For `c1csc(-c2nnsc2-c2nc3ccccc3[nH]2)c1`, the Potency was inconclusive [inhibitor, single point].
With `CO/N=C\c1ccc(C(=O)N2[C@H](c3ccc(C)cc3)[C@@H](C)CC[C@H]2C(=O)OC)cc1` the activity, negative = inhibition was inactive: 12.7% [at 11.5 µM].
In the case of `Clc1ccc2[nH]c3c(c2c1)CCc1cn[nH]c1-3`, the Potency is reported as inconclusive [inhibitor, single point].
In the case of `CSc1nc(-c2ccco2)nn1S(=O)(=O)c1ccc(C)cc1`, the Potency is reported as “inactive”.
For `CC(C)Sc1nc2c(c(=O)n1-c1ccc(F)cc1)SCC2`, the Potency was inconclusive [inhibitor, partial curve].
With `CCOC(=O)c1c(N)c(C#N)c2n1CCCCC2` the Potency was inconclusive [inhibitor, partial curve].
For `CCN1CCN(S(=O)(=O)c2cc(C)c(OC)cc2C)CC1`, the Potency was inconclusive [inhibitor, full curve, poor fit].
With `Cc1ccnc2ccc(-c3nc4ccccc4o3)cc12` the Potency was inconclusive [inhibitor, single point].
With `COCCn1c(=O)c(CCc2ccccc2)nc2cnc(Oc3ccccc3)nc21` the Potency was “inactive”.
In the case of `CNC(=O)[C@@H]1O[C@@H](n2cnc3c(NCc4cccc(I)c4)ncnc32)[C@H](O)[C@@H]1O`, the Potency is reported as inconclusive [inhibitor, full curve, poor fit].
With `CCOC(=O)c1cccc(NC(=O)Nc2cc(OC)ccc2OC)c1` the Potency was inconclusive [inhibitor, single point].
For `COc1ccccc1-c1nc(C#N)c(N2CCc3ccccc3C2)o1`, the Potency was active: 20 µM.
In the case of `O=C(Nc1cccc(S(=O)(=O)C(F)F)c1)c1ccc(S(=O)(=O)N2CCOCC2)cc1`, the Potency is reported as inconclusive [inhibitor, partial curve].
In the case of `Cc1nc2ccccc2c2oc(C(=O)N3CCc4ccccc43)cc12`, the Potency is reported as inconclusive [inhibitor, partial curve].
With `Cc1nnc(SC(C)C(=O)Nc2ccc3c(c2)OCCO3)s1` (stereo not given) the Potency was “inactive”.
With `O=C(NCc1ccco1)c1cc(-c2ccc(F)cc2)on1` the Potency was inconclusive [inhibitor, full curve, poor fit].
In the case of `O=C(CSc1nc2ccccc2[nH]1)NC(=O)NCc1ccco1`, the Potency is reported as inconclusive [inhibitor, single point].
In the case of `CCOCCn1c(SCC)nc2c1c(=O)[nH]c(=O)n2C`, the Potency is reported as inconclusive [inhibitor, single point].
For `O=C(Cn1cccc1C(=O)c1ccccc1)NCc1cccnc1`, the Potency was inconclusive [inhibitor, full curve, poor fit].
For `Cc1ccccc1-n1nnc2c(=O)oc3ccccc3c21`, the Potency was inconclusive [inhibitor, single point].
With `CC(C)c1nc2oc3c(=O)[nH]cnc3c2c2c1CCC2` the Potency was “inactive”.
For `COc1ccc(-c2nc(-c3ccc(NC(=O)c4ccncc4)cc3)no2)cc1OC`, the Potency was active: 10 µM.
In the case of `CCNC(=O)CC1C(=O)N(c2ccc(C)cc2)C(=O)N1Cc1ccccn1` (stereo not given), the Potency is reported as inconclusive [inhibitor, full curve, poor fit].
In the case of `c1ccc2c(NCCN3CCOCC3)nc(-c3ccoc3)nc2c1`, the Potency is reported as inconclusive [inhibitor, partial curve].
In the case of `CC(C)(C)n1ncc2c(=O)n(CC(=O)NCCc3ccccc3)cnc21`, the Potency is reported as “inactive”.
For `COCCNc1cc(C)nc2c(-c3ccccc3OC)c(C)nn12`, the Potency was inconclusive [inhibitor, single point].
In the case of `CC(C)Cn1c(Br)nc2c1c(=O)n(CCC#N)c(=O)n2C`, the Potency is reported as inconclusive [inhibitor, partial curve].
With `C[C@@H](C(=O)NCc1ccccc1)[C@@H]1C[C@@]1(C)[C@@H](NC(=O)OCc1ccccc1)c1ccccc1` the Potency was “inactive”.
For `CS(=O)(=O)N(Cc1nnc(-c2cccs2)o1)c1ccc(Cl)cc1F`, the Potency was inconclusive [inhibitor, single point].
In the case of `O=C(O)c1cccc(-n2cccc2/C=N/O)c1`, the Potency is reported as “inactive”.
With `N=C(N)SCCc1ccc(OCc2ccc([N+](=O)[O-])cc2)cc1` the Potency was inconclusive [inhibitor, partial curve].
In the case of `COc1cccc(-c2cncnc2NCc2cccc(C)c2)c1`, the Potency is reported as “inactive”.
In the case of `CCOC(=O)N1CCC(NC(=O)c2ccc(CS(=O)(=O)c3ccc(OC)cc3)o2)CC1`, the Potency is reported as inconclusive [inhibitor, single point].
In the case of `COc1cc2c(cc1OC)-c1cc(N3CCCc4ccccc43)nc(=O)n1CC2`, the Potency is reported as active: 20 µM.
For `O=C(CCCCCN1C(=O)c2ccccc2C1=O)Nc1ccc(S(=O)(=O)N2CCCCC2)cc1`, the Potency was inconclusive [inhibitor, partial curve, poor fit].

— PubChem BioAssay AID995 (National Center for Advancing Translational Sciences (NCATS), 2007)
% is set by controls: 0 for no effect and ±100 for the full control effect; potency is the fitted concentration of half-maximal effect; tags give direction and shape of the fitted curve.
